Assay [1] deals with STAT1-Flag/STAT2-CBD complexes isolated by Flag IP and chitin AP from IFNβ-treated transfected 293T cells (human | human (HeLa cDNA library)) (UniProt P42224). The experiment in a line: pull-down; both purified.
For assay [2], the target named is T1, IRF9, endogenous in iBCBL-1 cells (human (endogenous in iBCBL-1)) (UniProt Q00978).
T1 sequence: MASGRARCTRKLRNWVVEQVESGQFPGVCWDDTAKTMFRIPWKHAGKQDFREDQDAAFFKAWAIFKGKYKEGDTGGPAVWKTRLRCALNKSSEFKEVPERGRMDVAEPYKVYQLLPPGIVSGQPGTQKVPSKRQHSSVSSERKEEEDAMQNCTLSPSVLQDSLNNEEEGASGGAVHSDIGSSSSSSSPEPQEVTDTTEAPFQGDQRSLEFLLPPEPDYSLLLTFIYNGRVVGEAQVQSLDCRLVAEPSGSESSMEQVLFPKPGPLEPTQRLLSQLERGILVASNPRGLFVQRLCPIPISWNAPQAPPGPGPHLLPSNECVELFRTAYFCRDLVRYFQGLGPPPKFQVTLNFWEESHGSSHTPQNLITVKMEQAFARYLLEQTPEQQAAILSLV
Put plainly: co-IP.

In assay [3] the target is STAT1, endogenous in iBCBL-1 cells (human (endogenous in iBCBL-1)) (UniProt P42224). Put plainly: co-IP.
Assay [4] concerns the target STAT2, endogenous in iBCBL-1 cells (human (endogenous in iBCBL-1)) (UniProt P52630). Put plainly: co-IP.
Assay [5] concerns the target STAT1, endogenous in iBCBL-1 cells (human (endogenous in iBCBL-1)) (UniProt P42224). Put plainly: proximity ligation.
The target in assay [6] is STAT2, endogenous in iBCBL-1 cells (human (endogenous in iBCBL-1)) (UniProt P52630). Put plainly: proximity ligation.
Assay [7] has as its target chitin-binding domain (CBD)-tagged IFNAR1 (human (HeLa cDNA library)) (UniProt P17181). The experiment in a line: co-IP.
The target in another assay is S-peptide-tagged JAK1 (UniProt P23458). The experiment in a line: co-IP.
In assay [8] the target is chitin-binding domain (CBD)-tagged IRF9 (human (HeLa cDNA library)) (UniProt Q00978). Put plainly: co-IP.
Assay [9] has as its target StrepII+Flag (SF)-tagged vIRF-1 (human herpesvirus 8 (HHV-8)) (UniProt F5HF68). Put plainly: co-IP.
The target of assay [10] is S-peptide-tagged IFNAR1 (human) (UniProt P17181). Put plainly: co-IP.
For a further assay, the target named is S-peptide-tagged TYK2 (UniProt P29597). Put plainly: co-IP.
Assay [11] concerns the target Flag-tagged IRF9 (pCEBZ-IRF9-SF) (human) (UniProt Q00978). Put plainly: co-IP.
For assay [12], the target named is Flag-tagged STAT1 (pCEBZ-STAT1-SF) (human) (UniProt P42224). Put plainly: co-IP.
In assay [13] the target is IRF9-Flag/STAT2-CBD complexes isolated by Flag IP and chitin AP from IFNβ-treated transfected 293T cells (human | human (HeLa cDNA library)) (UniProt Q00978). The experiment in a line: co-IP.
The target of assay [14] is STAT1-Flag/IRF9-CBD complexes (ISGF3) isolated by Flag IP and chitin AP from IFNβ-treated transfected 293T cells (human | human (HeLa cDNA library) | human (endogenous in 293T)) (UniProt P42224). Put plainly: co-IP.
Assay [15] has as its target STAT1-Flag/STAT2-CBD complexes isolated by Flag IP and chitin AP from IFNβ-treated transfected 293T cells (human | human (HeLa cDNA library)) (UniProt P42224). Put plainly: co-IP.
Assay [16] deals with chitin-binding domain (CBD)-tagged STAT2 (human (HeLa cDNA library)) (UniProt P52630). Put plainly: co-IP.

No constants are given. Whether binding was seen depends on the method and setting. For some assays here: Binding seen in cells or lysates may run through a third protein. Some results given as binding are weak or reduced against the parent protein; the word gives no strength.

For “GST-fused recombinant vIRF-1 (pGEX-vIRF-1) (from UniProt F5HF68 1-449)”, the binding entry in assay [1] is “binds”.
As to “HHV-8 viral interferon regulatory factor 1 (vIRF-1), naturally expressed in TRExBCBL1-RTA (iBCBL-1) PEL cells (from UniProt F5HF68 1-449)”, the binding result in assay [2], in [3], in assay [4], in [5] and in assay [6] was “binds” throughout.
With “S-peptide-tagged TYK2 (from UniProt P29597 1-1187) (enzyme)”, the binding result in [7] is “binds”.
With “STAT2, endogenous in 293T cells (from UniProt P52630 1-851)”, the binding entry with S-peptide-tagged JAK1 is given as “binds”.
Regarding “StrepII+Flag (SF)-tagged vIRF-1 (from UniProt F5HF68 1-449)”, the binding result in assay [8] is recorded as “binds”.
Take “chitin-binding domain (CBD)-fused STAT1 (from UniProt P42224 1-750)”: in assay [9], the binding result is recorded as “binds”.
On to “chitin-binding domain (CBD)-tagged STAT2 (from UniProt P52630 1-851)”, for which the binding entry (in assay [10]; with S-peptide-tagged TYK2) was “binds” in each case.
As for “vIRF-1 from the 'vIRF-1 expression plasmid' coexpressed in transfected 293T cells (Figs 5A-F and 6) (from UniProt F5HF68 1-449)”, the binding result is “binds” in assay [11]; “binds” in assay [12]; “binds” in assay [13]; “binds” in the assay with S-peptide-tagged JAK1; “binds” with S-peptide-tagged TYK2; “no binding” in assay [14]. Further, the binding entry in assay [15] and in [16] was “binds” throughout.

For the origin of these results see article PMC9307175.
